The other results are listed elsewhere or left out. These are noisy estimates, calculated here from bound and input reads.

The values below come from the BET-seq Pho4 binding data (Le et al. 2018).

This experiment concerns the target T1, Pho4 (S. cerevisiae) (UniProt P07270).
T1 sequence: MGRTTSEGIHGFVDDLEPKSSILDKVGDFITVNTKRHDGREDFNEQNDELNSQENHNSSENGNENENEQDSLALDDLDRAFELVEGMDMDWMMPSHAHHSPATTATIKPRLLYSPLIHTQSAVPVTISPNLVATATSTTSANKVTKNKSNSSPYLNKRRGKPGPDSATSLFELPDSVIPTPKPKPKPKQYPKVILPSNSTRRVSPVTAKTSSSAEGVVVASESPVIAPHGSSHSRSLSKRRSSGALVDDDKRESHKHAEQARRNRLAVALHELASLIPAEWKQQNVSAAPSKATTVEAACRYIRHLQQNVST
Description: relative binding free energy (BET-seq); higher = weaker binding. The conditions noted are these: reference: library average.
For AGGGGCACGTGGATTA, the “relative binding free energy” value is -0.11 kcal/mol.
Turning to TTGGGCACGTGCGGTC, the “relative binding free energy” value was -0.19 kcal/mol.
With GGAGTCACGTGGGTGG, the “relative binding free energy” value came out at 0.04 kcal/mol.
For TATGGCACGTGGGACA, the “relative binding free energy” value was -0.24 kcal/mol.
As for TAGCTCACGTGTTGAG, the “relative binding free energy” value turned out to be 0.2 kcal/mol.
In the case of AAGCGCACGTGTGGTT, the “relative binding free energy” value is -0.1 kcal/mol.
Regarding CCAATCACGTGGGGTG, the “relative binding free energy” value was determined as 0.06 kcal/mol.
In the case of TCGGGCACGTGGTGCA, the “relative binding free energy” value is -0.2 kcal/mol.
As to ATCGTCACGTGTCGTA, the “relative binding free energy” value was 0.2 kcal/mol.
Consider CTGGTCACGTGTGCGC, for which the “relative binding free energy” value stood at 0.22 kcal/mol.
For TGTTACACGTGGTTTG, the “relative binding free energy” value was determined as 0.1 kcal/mol.
Take CCTGTCACGTGTTTGG: the “relative binding free energy” value came out at 0.01 kcal/mol.
On to CGGGGCACGTGGGGGG, for which the “relative binding free energy” value is -0.26 kcal/mol.
With GATTGCACGTGGAGTG, the “relative binding free energy” value amounted to 0.14 kcal/mol.
On to CGGCGCACGTGTGGTT, for which the “relative binding free energy” value is -0.01 kcal/mol.
Consider GGGTGCACGTGCGTTT, for which the “relative binding free energy” value was -0.05 kcal/mol.
For the sequence TTATGCACGTGGTCGC, the “relative binding free energy” value is -0.14 kcal/mol.
In the case of GATTTCACGTGTGTGC, the “relative binding free energy” value is 0.24 kcal/mol.
For the sequence TCTGACACGTGGTTGG, the “relative binding free energy” value amounted to 0.01 kcal/mol.
In the case of CGCGGCACGTGGGGTT, the “relative binding free energy” value is -0.26 kcal/mol.
With TTGGACACGTGTAGGT, the “relative binding free energy” value came out at 0.01 kcal/mol.
In the case of TTAGACACGTGGTGGG, the “relative binding free energy” value amounted to 0.02 kcal/mol.
In the case of GAGTACACGTGTTGGA, the “relative binding free energy” value came out at 0.19 kcal/mol.
For the sequence AGGTTCACGTGATGTT, the “relative binding free energy” value came to 0.32 kcal/mol.
Turning to CTTCGCACGTGTGTTT, the “relative binding free energy” value was -0.06 kcal/mol.
As for CGAATCACGTGGTTGG, the “relative binding free energy” value was determined as 0.15 kcal/mol.
For the sequence GTGAGCACGTGAATAT, the “relative binding free energy” value was found to be 0.27 kcal/mol.
As for ATTATCACGTGTGGGA, the “relative binding free energy” value turned out to be 0.13 kcal/mol.
For TTTTACACGTGAGTTG, the “relative binding free energy” value was determined as 0.33 kcal/mol.
Take AGGTTCACGTGCGGCG: the “relative binding free energy” value turned out to be 0.19 kcal/mol.
Turning to TTCGTCACGTGATGCA, the “relative binding free energy” value is 0.25 kcal/mol.
As to TTGTCCACGTGAGTGT, the “relative binding free energy” value was found to be 0.16 kcal/mol.
In the case of TGGTGCACGTGGGTTC, the “relative binding free energy” value is -0.08 kcal/mol.
Turning to TTGATCACGTGACAGG, the “relative binding free energy” value came to 0.28 kcal/mol.
Turning to TGGTTCACGTGTGCTG, the “relative binding free energy” value was 0.26 kcal/mol.
Consider CGTCACACGTGGTTGT, for which the “relative binding free energy” value was -0.06 kcal/mol.
With GTCATCACGTGCGGGT, the “relative binding free energy” value was -0.03 kcal/mol.
As to TAGGGCACGTGATTTG, the “relative binding free energy” value was -0.02 kcal/mol.
Turning to TGCAGCACGTGGGGAG, the “relative binding free energy” value was -0.18 kcal/mol.
The same measure for TCGGGCACGTGTCTTG: -0.1 kcal/mol; for GGTATCACGTGAGTTG: 0.44 kcal/mol.
In the case of AGGTTCACGTGAAGGA, the “relative binding free energy” value worked out at 0.26 kcal/mol.
As for AGCTTCACGTGTGTGT, the “relative binding free energy” value stood at 0.17 kcal/mol.
In the case of TGAAGCACGTGTTTCG, the “relative binding free energy” value is -0.1 kcal/mol.
Take TTGCACACGTGTTTGT: the “relative binding free energy” value was determined as 0.06 kcal/mol.
As for GCGTGCACGTGATGAG, the “relative binding free energy” value is 0.02 kcal/mol.
Turning to GTAGCCACGTGGCATG, the “relative binding free energy” value is -0.04 kcal/mol.
As for CGGGGCACGTGTAAGG, the “relative binding free energy” value is -0.05 kcal/mol.
On to TTTGTCACGTGATTCG, for which the “relative binding free energy” value worked out at 0.29 kcal/mol.
As for CCGGGCACGTGTGGGA, the “relative binding free energy” value was -0.11 kcal/mol.
As to AGGCGCACGTGGAGTA, the “relative binding free energy” value was -0.1 kcal/mol.
The same measure for TTTGTCACGTGGATGT: 0.13 kcal/mol.
The same measure for TAGGGCACGTGAGCGC: 0.21 kcal/mol; for ATTTGCACGTGCGGAT: -0.01 kcal/mol; for CTGGACACGTGGGGGG: 0.03 kcal/mol.
With CGGGTCACGTGATGTT, the “relative binding free energy” value came to 0.37 kcal/mol.
Turning to TGTTACACGTGGGGGT, the “relative binding free energy” value was -0.06 kcal/mol.
Turning to CTGGGCACGTGGTCTT, the “relative binding free energy” value was -0.18 kcal/mol.
In the case of ATGGGCACGTGGGGAA, the “relative binding free energy” value is -0.19 kcal/mol.
Turning to ACTTTCACGTGTTGGG, the “relative binding free energy” value was determined as 0.29 kcal/mol.
In the case of AGGGTCACGTGTGTGC, the “relative binding free energy” value came to 0.17 kcal/mol.
Consider AGAGCCACGTGGTCGG, for which the “relative binding free energy” value was -0.21 kcal/mol.
In the case of ATATCCACGTGGTGGT, the “relative binding free energy” value was -0.09 kcal/mol.
The same measure for ATTTGCACGTGTTCAG: -0.14 kcal/mol; for TGAGGCACGTGCTTGT: -0.2 kcal/mol.
Turning to ATAGTCACGTGGGTCG, the “relative binding free energy” value was 0.02 kcal/mol.
For the sequence AAGTGCACGTGATTTG, the “relative binding free energy” value came out at 0.05 kcal/mol.
On to TTCATCACGTGTATAG, for which the “relative binding free energy” value came out at 0.15 kcal/mol.
The same measure for CGTGGCACGTGTTTTG: -0.13 kcal/mol.
As for AAGGTCACGTGTCAGG, the figure is 0.26 kcal/mol; as for GGGGCCACGTGGGCGA, -0.17 kcal/mol; as for TTCTCCACGTGGTTTG, 0 kcal/mol.
As to CGGTACACGTGTAGGT, the “relative binding free energy” value was determined as 0.12 kcal/mol.
As for CGGGGCACGTGGGAGG, the figure is -0.16 kcal/mol; as for ATGGACACGTGATTTA, 0.1 kcal/mol; as for ATAAACACGTGTATTT, 0.04 kcal/mol.
The same measure for TCAGTCACGTGAGATG: 0.21 kcal/mol.
The same measure for CAGGACACGTGGTGGT: 0 kcal/mol.
On to AGTAGCACGTGTGCAT, for which the “relative binding free energy” value is -0.05 kcal/mol.
Consider GTAAGCACGTGGTAAT, for which the “relative binding free energy” value is -0.07 kcal/mol.
As for GGGGGCACGTGAACCT, the figure is 0.23 kcal/mol.
The same measure for TGTGTCACGTGTGTGG: 0.14 kcal/mol.
For TTGTGCACGTGAGTTG, the “relative binding free energy” value was determined as 0.25 kcal/mol.
Regarding AGTGTCACGTGAATTA, the “relative binding free energy” value amounted to 0.11 kcal/mol.
On to TGGTACACGTGACGAG, for which the “relative binding free energy” value turned out to be 0.21 kcal/mol.
For TTTAGCACGTGGGACG, the “relative binding free energy” value was -0.33 kcal/mol.
Regarding CGAGACACGTGTTGGG, the “relative binding free energy” value was -0.05 kcal/mol.
On to ATAGTCACGTGCAGTT, for which the “relative binding free energy” value is -0.12 kcal/mol.
The same measure for CTGTGCACGTGTATGT: -0.08 kcal/mol; for GACGTCACGTGATATG: 0.41 kcal/mol; for ATATGCACGTGGGTCG: -0.21 kcal/mol.
For GTATCCACGTGGGGGT, the “relative binding free energy” value is -0.15 kcal/mol.
As to TGGTGCACGTGTCCTG, the “relative binding free energy” value was -0.04 kcal/mol.
AGCGTCACGTGCGGTA: the “relative binding free energy” value was -0.08 kcal/mol.
On to AGGGACACGTGAGTAG, for which the “relative binding free energy” value came to 0.18 kcal/mol.
On to GTTAGCACGTGGCCGG, for which the “relative binding free energy” value was -0.07 kcal/mol.
Consider CAGCGCACGTGTGGGT, for which the “relative binding free energy” value was -0.06 kcal/mol.
For TTGGGCACGTGAGGAC, the “relative binding free energy” value was 0.06 kcal/mol.
As for ATTTGCACGTGAGCAG, the “relative binding free energy” value was determined as 0.23 kcal/mol.
In the case of TATTACACGTGAAATT, the “relative binding free energy” value is 0.33 kcal/mol.
On to CGTAACACGTGTGCGG, for which the “relative binding free energy” value was -0.04 kcal/mol.
For the sequence GGTGTCACGTGTTTCG, the “relative binding free energy” value was 0.2 kcal/mol.
In the case of GTGGACACGTGGCTTA, the “relative binding free energy” value was -0.08 kcal/mol.
Turning to TGTAGCACGTGCGGAT, the “relative binding free energy” value was 0.05 kcal/mol.
The same measure for TATATCACGTGGGGCC: 0.15 kcal/mol.
With GCTAACACGTGGGGAG, the “relative binding free energy” value is -0.01 kcal/mol.
The same measure for TAATCCACGTGATTGT: 0.22 kcal/mol; for TAGTTCACGTGCGATT: 0.24 kcal/mol.
In the case of GGGTTCACGTGCTGGC, the “relative binding free energy” value was found to be 0.25 kcal/mol.
For the sequence GTTCACACGTGGGTGA, the “relative binding free energy” value was -0.1 kcal/mol.
As for AAGGGCACGTGTAGCG, the “relative binding free energy” value is -0.16 kcal/mol.
For AGGATCACGTGAGTAT, the “relative binding free energy” value amounted to 0.31 kcal/mol.
As for CAAATCACGTGTGAGT, the “relative binding free energy” value was found to be 0.34 kcal/mol.
For TGGGGCACGTGGTGCA, the “relative binding free energy” value is -0.28 kcal/mol.
For TGAAGCACGTGGGATG, the “relative binding free energy” value was -0.14 kcal/mol.
